ChEMBL document CHEMBL4888484, “Replenishing the malaria drug discovery pipeline: Screening and hit evaluation of the MMV Hit Generation Library 1 (HGL1) against asexual blood stage Plasmodium falciparum ,using a nano luciferase reporter read-out” (2022)
The campaign covered roughly 150,000 compounds. About 540 (0.36%) showed an effect of 50% or more. This is one part of the list.

test system: Plasmodium falciparum; assay: Primary screen in NF54 nanoGlo assay, in single point, at 2uM, 72h; a lower Z score goes with more inhibition; type: functional, Erythrocyte; conditions: timepoint 72 hour

Row | SMILES | % Inhibition [%] | Z score
1 | COc1ccccc1N(CCC(N)=O)C(=O)CN1CC(C)OC(C)C1 (stereo not given) | -18 | 2.32
2 | COCc1ccc(NC(=O)N[C@H]2CCO[C@@H]2c2ccncc2)cc1C(F)(F)F | -15 | 1.88
3 | CC(C)c1ccc(CN2C[C@H]3CCCC(=O)N[C@H]3C2)cc1 | 28 | -3.13
4 | Cc1ncsc1C(=O)N(C)Cc1ccc2c(c1)OCO2 | 9 | -1.17
5 | CCCN(C)S(=O)(=O)Cc1ccc(C)cc1F | -6 | 0.88
6 | CO[C@H]1C[C@H]2CC[C@@H](C1)N2C(=O)c1ccc(-c2ccccc2)cc1 | -1 | 0.17
7 | CCC(C)N(CC(=O)N(CCc1ccccc1)Cc1ccco1)C(=O)CC(C)CC(C)(C)C (stereo not given) | -8 | 1.36
8 | Cc1c[nH]c(CN2CCN(c3nc[nH]n3)CC2)c(C)c1=O | -9 | 1.66
9 | CCOC(=O)c1cc(NC(=O)c2cccc(Cl)c2F)[nH]n1 | -3 | 0.29
10 | Cc1nc(N2CCCC(NC3CCc4ccccc43)CC2)nc2cc(S(C)(=O)=O)ccc12 (stereo not given) | -15 | 1.97
11 | COc1ccc([C@H]2C[C@@H]2C(=O)N2CC(NC(=O)C3CCC3)C2)cc1 | -3 | 0.43
12 | CCOC(=O)c1cccnc1-c1ccc2[nH]ccc2c1 | -7 | 1.24
13 | COc1nn(C)cc1NC(=O)N1CCC[C@H](Cc2nc(C)no2)C1 | 3 | -0.35
14 | Cc1nonc1CN(C)Cc1cnn(C(C)C)c1 | 3 | -0.48
15 | Cc1ccc(OC2CN([C@@H](C)CS(C)(=O)=O)C2)cc1 | -10 | 1.88
16 | Cc1ccc(O[C@H]2CCN(C(=O)CCS(=O)(=O)c3ccccc3)C2)nn1 | -8 | 0.96
17 | Cc1cc(NC[C@H](O)C(N)=O)nc(C2CC2)n1 | 9 | -1.15
18 | CN(C)C(=O)NCC(=O)NCc1cccnc1N | -5 | 0.78
19 | CN(CC[C@H]1CN(C(=O)N2CCOCC2)CC[C@H]1CC(=O)O)c1ccccc1 | -1 | 0.12
20 | Cc1cc(CN2CCNC(=O)C2)nc(-c2ccc(Cl)cc2)n1 | -7 | 1.33
21 | Cc1ccccc1CS(=O)(=O)c1nnc([C@@H](NC(=O)OC(C)(C)C)C(C)C)o1 | -15 | 1.3
22 | CN1CCCCC1CN1CCN(C(=O)C2CC3CCC2C3)CC1 (stereo not given) | -8 | 1.01

Row | SMILES | % Inhibition [%] | Z score
23 | COC[C@H]1CN(C2CCC2)CC12CCN(C(=O)C1CCCC1)CC2 | -4 | 0.44
24 | COC(OC)C(=O)N1CCN(Cc2cn3cc(C)ccc3n2)CC1 | -2 | 0.24
25 | Cc1ccc(S(=O)(=O)/N=C(/CN2CCCC2)N2CCN(S(=O)(=O)c3ccc(C)cc3)[C@H]2c2ccc(N(C)C)cc2)cc1 | -2 | 0.41
26 | O=c1cc([O-])[n+]2c3n1CCCN3CCC2 | -6 | 0.92
27 | C[C@@H](C1CC1)N(CC(F)(F)F)C(=O)Cn1cnc2c1c(=O)n(C)c(=O)n2C | -5 | 0.75
28 | COc1ccc(NC(=O)Cn2c(=O)ccc3cc(S(=O)(=O)N4CCCC4)ccc32)cc1OC | -11 | 1.36
29 | Cc1ccc(S(=O)(=O)N2CCC(O)(c3ccnn3C)CC2)cc1 | 4 | -0.84
30 | COc1cc2c(cc1OC)CN(C1CCC(C)C1)CC2 (stereo not given) | 5 | -0.81
31 | CCC(C(N)=O)N1CCC(F)(F)C(C)C1 (stereo not given) | -12 | 1.63
32 | COc1ccccc1[C@@H]1CNC(=O)c2nc(C3(Cn4ccnc4)CC3)[nH]c2C1 | -4 | 0.7
33 | Cc1[nH]c2c(C(F)(F)F)cccc2c1CCNC(=O)CCCc1cn(Cc2ccccc2)c2ccccc12 | 0 | 0
34 | Cc1nc(COc2ccc(Cl)cc2C)n([C@H]2CCS(=O)(=O)C2)n1 | -16 | 1.57
35 | N#Cc1ccc(COCC2CCN(CC(=O)N3CCOCC3)CC2)cc1 | -5 | 0.52
36 | CCN(C)c1ccccc1NC(=O)N1CC2CC=CCC2C1 (stereo not given) | 4 | -0.57
37 | CC1(C)Cc2cc(NC(=O)C3(O)CCCC3)ccc2O1 | 11 | -1.78
38 | O=C(NCCc1cccs1)[C@H]1CCCN(c2nccn3nc(-c4ccccc4Cl)cc23)C1 | -6 | 0.7
39 | CCNC(=O)CNCc1ccc(C)cc1Br | -13 | 1.51
40 | CC(C)=CCC[C@H](C)N(C)CCn1ccnc1 | 2 | -0.21
41 | C[C@@H](c1ccon1)N(C)C(=O)c1cnc2ccccc2n1 | -7 | 1.31
42 | CCCCC(=O)NCC1(N2CCCCC2)CCN(C)CC1 | -3 | 0.46
43 | O=C(ON1C(=O)CCC1=O)c1cccc(F)c1 | 34 | -3.87
44 | O=C(c1ccc2[nH]ccc2c1)N1CCN(C(=O)c2nnn3c2CO[C@H](c2ccccc2)C3)CC1 | -21 | 1.91

Row | SMILES | % Inhibition [%] | Z score
45 | N[C@@H](Cc1ccccc1)C(=O)N1CCN(C(=O)c2ccccc2)CC1 | 4 | -0.46
46 | CC(C)c1noc([C@H](C)NC(=O)C(=O)c2cccn2C)n1 | -3 | 0.38
47 | COc1ccccc1C(=O)N1CCc2nc(N3CCc4ccccc4C3)nc(N(C)C)c2C1 | -16 | 2.04
48 | Cc1cc(CNC(=O)COc2ccc(Cl)cc2)nc(N(C)C)n1 | 3 | -0.48
49 | COC(=O)[C@](O)(CC(=O)Nc1ccccc1Cl)C(F)(F)F | 2 | -0.35
50 | Cc1ccc(CNC(=O)c2cnc(NC3CC3)s2)n1C | -13 | 2.17
51 | CN(C)c1ccc(N2CCn3c2nc2c3c(=O)[nH]c(=O)n2C)cc1 | -3 | 0.74
52 | COCCN(c1ccncc1)S(=O)(=O)c1c(F)cccc1Cl | -9 | 0.86
53 | COc1ccc(NC(=O)[C@@H]2CCCCc3n[nH]c(=O)n32)cc1Cl | -13 | 1.29
54 | COCCOc1nc(-c2cccc(OC)c2)n(-c2ccc(NC(=O)c3ccc(F)cc3)cc2)n1 | -3 | 0.48
55 | C#CCN1C(=O)[C@]2(CC(=O)Nc3[nH]ncc32)c2ccccc21 | 6 | -0.96
56 | CCOc1ccc(C2=NC3(CCN(CC)CC3)N[C@H](c3cccc(OC)c3O)C2)cc1 | -9 | 0.98
57 | Nc1nc(O)cc(NCc2ccccc2)n1 | -11 | 1.24
58 | Clc1c(CN2CCCC2)cccc1Oc1ccc2c(c1)OCCO2 | 8 | -1.58
59 | O=C(O)c1ccc2c(NC3CCCC3)ncnc2c1 | -5 | 0.71
60 | CC(C)c1c[nH]nc1NC(=O)[C@H]1CC1(F)F | -17 | 2.46
61 | CCN1CCC2CCC(C1)N2CCC1CCC2(CC1)OCCO2 (stereo not given) | -5 | 0.53
62 | Cc1cccc(-c2ncccc2CNC(=O)c2cccs2)c1 | 9 | -1.38
63 | CCC(=O)N1CCc2sc(S(=O)(=O)N3CCN(c4cc(C)ccc4C)CC3)cc2C1 | 23 | -6.61
64 | CCCc1cc(C(=O)N[C@H]2CCN(c3ccccc3F)C2)cc(=O)[nH]1 | -2 | 0.37
65 | Cc1cccc(C2(c3cccc(C)c3)C[C@@H]2C(=O)Nc2nccs2)c1 | -2 | 0.26
66 | CC(C)Cc1nc(CCn2cncn2)n(-c2cccc3cccnc23)n1 | -13 | 1.84

Row | SMILES | % Inhibition [%] | Z score
67 | Cc1ccc2c(NC(=O)c3ccccc3)nn(C)c2n1 | -6 | 0.76
68 | O=C(CCNc1ccc(Cc2ccncc2)cc1)c1cc2ccccc2o1 | -38 | 3.48
69 | CCN1CC(CN(C)C(=O)NC2CC2c2ccccc2)Oc2ccccc21 (stereo not given) | -8 | 0.82
70 | O=C(O)Cn1nccc1[C@H]1CCCN(Cc2ccc3c(c2)CCO3)C1 | -14 | 1.85
71 | CC1CN(C(=O)CCc2nc3ccccc3s2)CC(C)N1 (stereo not given) | 1 | -0.08
72 | O=C(Nc1ccnn1C1CCC1)N1CCOCC1 | -24 | 2.4
73 | CCn1nc(C(=O)N2CCCCCC2)c2c1CC[C@H](NCc1ccccc1OC)C2 | -3 | 0.39
74 | CCOc1cc(N2CCOCC2)c(OCC)cc1NC(=O)c1cc(Cl)c2c(c1)OCCCO2 | 5 | -0.8
75 | Cc1nc(COC2CCN(C(=O)C3CC3C)C2)cs1 (stereo not given) | -2 | 0.31
76 | CC(C)=C(C)CC(=O)NCc1cnn(C)c1C | 0 | 0.02
77 | O=C(Nc1ccccc1C(=O)N1CCCCC1)C1CCN(S(=O)(=O)Cc2ccccc2F)CC1 | 2 | -0.36
78 | CCn1nc(CO)c2c1CCN(C(=O)Nc1ccc3c(c1)C[C@H](C)O3)C2 | -3 | 0.41
79 | CC(c1cccc(C#N)c1)N1CCOC(COCC2CC2)C1 (stereo not given) | -10 | 1.34
80 | O=C(N[C@@H](N1CCOCC1)C(Cl)(Cl)Cl)c1cccs1 | 6 | -0.87
81 | Cc1nn(-c2ccccc2Cl)c(=O)n1CC(=O)NCc1nnc2n1CCC2 | -17 | 1.89
82 | CCOc1ncc(NC(=O)Cc2ccc(OC)cc2)c(OCC)n1 | -4 | 0.68
83 | O=C(CCc1ccsc1)NC[C@H]1CC[C@@H](CO)O1 | -11 | 1.45
84 | O=C(NCC1CCN(c2nc(-c3ccc(F)cc3)cs2)CC1)c1ccon1 | 4 | -0.52
85 | O=C(Nc1ccncc1)C(=O)N1CCN(c2ccc(F)cc2)CC1 | -14 | 1.48
